IC50 is the fitted dose that halves viability relative to control wells, and lower means more sensitive; a limit (>, <) means that the fit lies beyond the doses tested. For AUC the same curve is integrated over the 256-fold range of doses and scaled to a fraction; values near 1 show little effect. For part of these data: A top dose marked as inferred is not printed in the source and was worked back from the curve model. For part of these data: Drugs with an entry number were screened twice under separate entries, and the two screens often disagree.
Columns and labels:
Test in all cases: Viability of human cancer cell lines after 72 h of drug (GDSC screen)
[1] = compound: Cc1cccc(-c2[nH]c(C(C)(C)C)nc2-c2ccc3c(c2)OCO3)n1 [SB-505124]; conditions: top dose 10 µM; top dose inferred
Experimental: (§1)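 Human cancer cell lines in 384-well plates, medium with 10% serum, drug for 72 h over a 256-fold dose range (nine 2-fold or five 4-fold steps up to the top dose). Adherent lines were fixed and stained with the nucleic acid dye Syto60, suspension lines read with resazurin; signal relative to control wells, capped at 0 and 100%. One two-parameter sigmoid per drug and line, fitted in a mixed model over all curves with the slope shared within a line.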

[2] = compound: CCn1c(-c2nonc2N)nc2c(C#CC(C)(C)O)ncc(OC[C@H]3CCCNC3)c21 [GSK690693]; conditions: top dose 10.24 µM; top dose inferred
Experimental: as §1

[3] = compound: COc1cc2c(NC3CCN(C(C)C)CC3)nc(C3CCCCC3)nc2cc1OCCCN1CCCC1 [UNC0638]
Experimental: as §1

[4] = compound: Oc1cccc(-c2nc(N3CCOCC3)c3oc4ncccc4c3n2)c1 [PI-103]; conditions: top dose 10.24 µM
Experimental: as §1

[5] = compound: CC1=C(/C=C/C(C)=C/C=C/C(C)=C/C(=O)O)C(C)(C)CCC1 [Tretinoin]; conditions: top dose 10 µM; top dose inferred
Experimental: as §1

[6] = compound: COc1ccc(N(C(=O)Oc2c(C)cccc2C)c2ccnc(Nc3ccc(N4CCN(C)CC4)cc3)n2)c(OC)c1 [WH-4-023]; conditions: top dose 5.12 µM; top dose inferred
Experimental: as §1

[7] = compound: O=C(NCCCNc1nc(Nc2cccc(NC(=O)N3CCCC3)c2)ncc1I)c1cccs1 [BX-795]; conditions: top dose 5 µM; top dose inferred
Experimental: as §1

[8] = top dose 20 µM, screen: GDSC drug entry 1236, top dose inferred
[9] = top dose 40 µM, screen: GDSC drug entry 245

Cell Line	AUC [1]	IC50 [1] [µM]	AUC [2]	IC50 [2] [µM]	AUC [3, 8]	IC50 [3, 8] [µM]	AUC [3, 9]	IC50 [3, 9] [µM]	AUC [4]	IC50 [4] [µM]	AUC [5]	IC50 [5] [µM]	AUC [6]	IC50 [6] [µM]	AUC [7]	IC50 [7] [µM]
LS-1034 (large intestine, adherent)	0.982	> 10	0.952	> 10.2	0.907	> 20	0.662	7.43	0.7	2.49	0.983	> 10	0.96	> 5.12	0.975	> 5
LU-134-A (small cell lung carcinoma, suspension)	0.981	> 10	0.768	4.08	0.812	11.5	0.68	8.27	0.633	1.53	0.987	> 10	0.984	> 5.12	0.832	3.48
LU-165 (small cell lung carcinoma, suspension)	0.986	> 10	0.855	9.77	0.816	12.9	0.795	21.2	0.758	3.96	0.979	> 10	0.967	> 5.12	0.988	> 5
LXF-289 (lung adenocarcinoma, adherent)	0.925	> 10	0.984	> 10.2	0.772	7.59	0.76	13.8	0.925	> 10.2	0.914	> 10	0.664	0.905	0.692	1.07
MC116 (B-cell lymphoma, suspension)	0.992	> 10	0.956	9.08	0.879	10.4	0.812	14.2	0.21	0.128	0.999	> 10	0.879	2.67	0.96	4.59
MC-CAR (haematopoietic neoplasm, suspension)	0.98	> 10	0.775	3.62	0.815	9.54	0.609	4.8	0.2	0.094	0.98	> 10	0.952	> 5.12	0.83	2.69
MDST8 (large intestine, adherent)	0.986	> 10	0.962	> 10.2	0.779	8.08	0.711	9.82	0.708	2.46	0.96	> 10	0.986	> 5.12	0.876	4.9
ME-1 (acute myeloid leukaemia, suspension)	0.985	> 10	0.965	> 10.2	0.988	> 20	0.732	12.1	0.794	5.08	0.947	> 10	0.989	> 5.12	0.987	> 5
MEG-01 (chronic myeloid leukaemia, suspension)	0.985	> 10	0.962	> 10.2	0.681	3.88	0.607	4.81	0.538	0.806	0.905	> 10	0.03	< 0.02	0.847	3.36
MFH-ino (soft tissue, adherent)	0.971	> 10	0.98	> 10.2	0.933	> 20	0.906	> 40	0.784	5.18	0.98	> 10	0.386	0.147	0.883	> 5
MFM-223 (breast, adherent)	0.981	> 10	0.829	6.27	0.988	> 20	0.863	34.1	0.786	4.38	0.968	> 10	0.989	> 5.12	0.888	> 5
MHH-PREB-1 (B-cell leukaemia, suspension)	0.957	> 10	0.989	> 10.2	0.661	3.32	0.539	3.16	0.271	0.155	0.989	> 10	0.833	2.83	0.888	4.61
ML-2 (acute myeloid leukaemia, suspension)	0.986	> 10	0.837	5.79	0.826	10.3	0.624	5.25	0.097	< 0.04	0.969	> 10	0.99	> 5.12	0.948	> 5
MLMA (hairy cell leukaemia, semi-adherent)	0.944	> 10	0.781	4.3	0.769	7.65	0.616	5.22	0.162	0.0586	0.986	> 10	0.654	0.862	0.891	> 5
MMAC-SF (melanoma, adherent)	0.964	> 10	0.963	> 10.2	0.814	11.5	0.751	13.7	0.663	1.85	0.984	> 10	0.967	> 5.12	0.982	> 5
MN-60 (B-cell leukaemia, suspension)	0.958	> 10	0.924	> 10.2	0.871	> 20	0.757	14.3	0.201	0.0801	0.975	> 10	0.981	> 5.12	0.984	> 5
MOLP-8 (myeloma, suspension)	0.891	> 10	0.635	1.49	0.615	2.56	0.528	2.97	0.081	< 0.04	0.987	> 10	0.948	> 5.12	0.805	2.41
MOLT-4 (lymphoblastic leukaemia, suspension)	0.966	> 10	0.504	0.654	0.671	3.39	0.61	4.72	0.266	0.161	0.974	> 10	0.936	> 5.12	0.706	1.04
MONO-MAC-6 (acute myeloid leukaemia, suspension)	0.981	> 10	0.805	5.52	0.816	12	0.618	5.38	0.266	0.131	0.709	2.53	0.971	> 5.12	0.394	0.157
MPP-89 (mesothelioma, adherent)	0.971	> 10	0.982	> 10.2	0.871	> 20	0.959	> 40	0.887	> 10.2	0.874	> 10	0.333	0.0949	0.937	> 5
MRK-nu-1 (breast, suspension)	0.982	> 10	0.99	> 10.2	0.932	> 20	0.878	34.8	0.585	1.07	0.987	> 10	0.811	2.46	0.98	> 5
MS-1 (small cell lung carcinoma, suspension)	0.99	> 10	0.9	> 10.2	0.844	12.2	0.586	4.19	0.497	0.629	0.981	> 10	0.99	> 5.12	0.957	> 5
MSTO-211H (mesothelioma, adherent)	0.99	> 10	0.991	> 10.2	0.785	7.7	0.974	> 40	0.836	5.88	0.927	> 10	0.922	> 5.12	0.909	> 5
MV-4-11 (leukaemia, suspension)	0.989	> 10	0.879	7.34	0.808	8.21	0.576	3.87	0.244	0.139	0.085	< 0.0391	0.983	> 5.12	0.162	0.0383
MZ1-PC (pancreas, adherent)	0.977	> 10	0.894	> 10.2	0.798	12.3	0.588	4.61	0.436	0.41	0.964	> 10	0.486	0.291	0.872	> 5
MZ2-MEL (melanoma, adherent)	0.97	> 10	0.965	> 10.2	0.874	> 20	0.838	34	0.358	0.241	0.98	> 10	0.831	4.05	0.83	3.89
Mo-T (hairy cell leukaemia, suspension)	0.977	> 10	0.876	> 10.2	0.811	10.9	0.685	8.35	0.306	0.181	0.941	> 10	0.983	> 5.12	0.925	> 5

Reference: the supplement of paper PMC4967469
